{"source": "the supplement of paper PMC10600219", "note": "Where a name gives a salt, the structure may show the parent alone. The full ranking holds about 2,800 compounds; the median of “cell viability relative to vehicle” is about 1.1, and the lowest 2% start at about 0.19. The list shows a part of the results."}
{"test_system": "NCI-H2228 parental", "assay": "cell viability relative to vehicle (fraction of vehicle); NCI-H2228 is an ALK-positive lung cancer line and DTP means drug-tolerant persister; higher = less growth inhibition", "details": "100 nM; treatment time 6 days", "procedure,_shortened": "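NCI-H2228 parental cells and drug-tolerant persister cells were plated in 384-well plates; the persisters had been generated with 1000 nM of a targeted drug over 13 days. One day later, the 3114-agent TargetMol anti-cancer compound library was added at 100 nM, with DMSO serving as vehicle. ATP was measured 6 days after that using the CellTiter-Glo 3D Cell Viability Assay. Values are cell viability expressed relative to vehicle-treated cells.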"}
{"smiles": "Cc1[nH]c2ccccc2c1CCNC(=O)c1cccs1", "cell viability": 1.06}
{"smiles": "O=c1cc(-c2cccc3c2Sc2ccccc2S3)oc(N2CCOCC2)c1", "cell viability": 1.16}
{"smiles": "Oc1ccc([C@H]2COc3cc(O)ccc3C2)cc1", "note": "[Equol]", "cell viability": 0.937}
{"smiles": "CN1CCc2c(c3ccccc3n2Cc2ccccc2)C1", "note": "[Mebhydrolin napadisylate]", "cell viability": 1.17}
{"smiles": "O=C([C@@H](Cc1cccc(C(F)(F)F)c1)NS(=O)(=O)c1cc(F)c2c(c1)CCNC2)N1CCCC1", "note": "[(R)-PFI-2 hydrochloride]", "cell viability": 0.997}
{"smiles": "Nc1nc(Cl)nc2c1ncn2[C@H]1C[C@H](O)[C@@H](CO)O1", "note": "[Cladribine]", "cell viability": 0.201}
{"smiles": "CC(C)(CNC(=O)c1cccc(-c2noc(C(F)(F)F)n2)c1)c1coc(-c2ccccc2)n1", "cell viability": 1.2}
{"smiles": "CCCCCCCCC[C@H](O)CC(=O)CCc1ccc(O)c(OC)c1", "note": "[10-Gingerol]", "cell viability": 1.08}
{"smiles": "Cc1cccc(C(=O)O)c1O", "note": "[Hydroxytoluic acid]", "cell viability": 1.33}
{"smiles": "O=C(C=Cc1ccccc1)NC(NC(=S)Nc1ccc(Cl)cc1)C(Cl)(Cl)Cl", "note": "(configuration not stated)", "cell viability": 0.887}
{"smiles": "C=C1CCC[C@]2(C)C=C3OC(=O)C(C)=C3C[C@@H]12", "note": "[Atractylenolide I]", "cell viability": 1.07}
{"smiles": "Cc1nc(Nc2cnn(C3CCNCC3)c2)nc2c1N(C)C(=O)c1cc3ccccc3cc1N2C", "cell viability": 1.11}
{"smiles": "OCCOCCN1CCN(C2=Nc3ccccc3Sc3ccccc32)CC1", "note": "[Quetiapine Fumarate]", "cell viability": 1.07}
{"smiles": "COc1cccc2c1C(=O)c1c(O)c3c(c(O)c1C2=O)C[C@@](O)(C(=O)CO)C[C@@H]3O[C@H]1C[C@H](N)[C@H](O)[C@H](C)O1", "note": "[Doxorubicin hydrochloride]", "cell viability": 0.219}
{"smiles": "CCC(=O)O[C@@H](O[P@](=O)(CCCCc1ccccc1)CC(=O)N1C[C@H](C2CCCCC2)C[C@H]1C(=O)O)C(C)C", "note": "[Fosinopril sodium]", "cell viability": 0.975}
{"smiles": "CC1(C)S[C@@H]2[C@H](NC(=O)[C@H](N)c3ccc(O)cc3)C(=O)N2[C@H]1C(=O)O", "note": "[Amoxicillin trihydrate]", "cell viability": 0.817}
{"smiles": "COc1cc(-c2cn(C)c(=O)c3cnccc23)c(OC)cc1CN(C)C", "cell viability": 1.07}
{"smiles": "Cc1cc(C(=O)NOCCO)c(Nc2ccc(I)cc2F)n(C)c1=O", "cell viability": 0.554}
{"smiles": "Cc1cc(-c2nnc(N)nc2-c2ccc(F)cc2)cc(Cl)n1", "cell viability": 1.03}
{"smiles": "COc1ccc2c(C)nc(Nc3nc(C)c(C)c(=O)[nH]3)nc2c1", "note": "[Madrasin]", "cell viability": 1.1}
{"smiles": "Cc1cc2c(cc1S(N)(=O)=O)S(=O)(=O)CCC2", "note": "[Meticrane]", "cell viability": 0.924}
{"smiles": "COCCOc1cnc2ccn([C@H](C)c3nnc4c(F)cc(-c5cnn(C)c5)cn34)c(=O)c2c1", "cell viability": 1.06}
{"smiles": "Cc1c(NC(=O)c2cc(C(N)=O)nc3cc(F)ccc23)c(C(F)(F)F)nn1Cc1ccc(C#N)cc1", "cell viability": 0.862}
{"smiles": "Clc1cnccn1", "note": "[2-Chloropyrazine]", "cell viability": 1.04}
{"smiles": "Nc1nc2c(ncn2[C@@H]2O[C@H](CO)[C@@H](O)[C@H]2O)c(=O)[nH]1", "note": "[Guanosine]", "cell viability": 1.11}
{"smiles": "COC(=O)Nc1nc2cc(C(=O)c3ccccc3)ccc2[nH]1", "note": "[Mebendazole]", "cell viability": 0.758}
{"smiles": "CC(C)c1ccc2oc3nc(N)c(C(=O)O)cc3c(=O)c2c1", "note": "[Amlexanox]", "cell viability": 1.12}
{"smiles": "CC1(C)S[C@@H]2[C@H](NC(=O)[C@H](NC(=O)N3CCNC3=O)c3ccccc3)C(=O)N2[C@H]1C(=O)O", "note": "[Azlocillin sodium]", "cell viability": 1.06}
{"smiles": "CCn1c2ccccc2c2cc(Nc3ccnc(NCCCN4CCOCC4)n3)ccc21", "cell viability": 1.02}
{"smiles": "COc1ccc(-c2oc3cc(O)cc(O)c3c(=O)c2O)cc1", "note": "[kaempferide]", "cell viability": 1.13}
{"smiles": "O=C1[C@H](Cc2ccc(O)cc2)N2C(=O)CCN(C(=O)NCc3ccccc3)[C@H]2CN1Cc1cccc2ccccc12", "cell viability": 1.11}
{"smiles": "O=C(O)c1cccnc1Nc1cccc(C(F)(F)F)c1", "note": "[Niflumic acid]", "cell viability": 1.02}
{"smiles": "Cc1oncc1C(=O)Nc1ccc(C(F)(F)F)cc1", "note": "[Leflunomide]", "cell viability": 0.955}
{"smiles": "COc1ccc(C(Cl)=C(c2ccc(OC)cc2)c2ccc(OC)cc2)cc1", "note": "[Chlorotrianisene]", "cell viability": 0.908}
{"smiles": "Cc1cn([C@H]2O[C@@H](CO)[C@H](O)[C@H]2F)c(=O)[nH]c1=O", "note": "[Clevudine]", "cell viability": 1.06}
{"smiles": "CCOC(=O)[C@H](CCc1ccccc1)N[C@@H](C)C(=O)N1Cc2ccccc2C[C@H]1C(=O)O", "note": "[Quinapril hydrochloride]", "cell viability": 1.09}
{"smiles": "CC(CCc1ccccc1)NCC(O)c1ccc(O)c(C(N)=O)c1", "note": "(configuration not stated) [Labetalol hydrochloride]", "cell viability": 1.04}
{"smiles": "Cn1cc(-c2ccc3ncc(Cc4ccc5ncccc5c4)n3n2)cn1", "cell viability": 0.958}
{"smiles": "CN1C(C)(C)CCCC1(C)C", "note": "[Pempidine]", "cell viability": 1.15}
{"smiles": "CN(C)/N=N/c1[nH]cnc1C(N)=O", "note": "[Dacarbazine]", "cell viability": 1.1}
{"smiles": "C[N+](C)(C)CCCCCC[N+](C)(C)C", "note": "[Hexamethonium Bromide]", "cell viability": 0.895}
{"smiles": "CC1C(=O)OC2C(O)C34C5CC(C(C)(C)C)C36C(OC(=O)C6O)OC4(C(=O)O5)C12O", "note": "(configuration not stated) [Ginkgolide B]", "cell viability": 1.18}
{"smiles": "O=c1ccc2ccc(OCCCCN3CCN(c4cccc5sccc45)CC3)cc2[nH]1", "note": "[Brexpiprazole]", "cell viability": 1.26}
{"smiles": "COc1cccc(-c2cc(NCc3ccc4c(c3)OCO4)nc(N)n2)c1", "note": "[Wnt agonist 1]", "cell viability": 0.383}
{"smiles": "Cc1cc2cc(Oc3ccnc(Nc4cccc(CS(=O)(=O)NCCN(C)C)c4)n3)ccc2[nH]1", "note": "[Sulfatinib]", "cell viability": 1.03}
{"smiles": "COc1ccc([C@@H]2CC(=O)c3c(O)cc(O[C@@H]4O[C@H](CO[C@@H]5O[C@@H](C)[C@H](O)[C@@H](O)[C@H]5O)[C@@H](O)[C@H](O)[C@H]4O)cc3O2)cc1O", "note": "[Hesperidin]", "cell viability": 1.03}
{"smiles": "O=c1cc(N2CCOCC2)oc2c(-c3cccc4c3sc3ccccc34)cccc12", "cell viability": 1.13}
{"smiles": "CC(C)(C(=O)O)c1ccc(C(O)CCCN2CCC(C(O)(c3ccccc3)c3ccccc3)CC2)cc1", "note": "(configuration not stated) [Fexofenadine hydrochloride]", "cell viability": 1.36}
{"smiles": "COc1cc2cc(Oc3ccc4ccc(=O)oc4c3)c(=O)oc2cc1O", "note": "[Daphnoretin]", "cell viability": 1.06}
{"smiles": "CN(C)CCCN1c2ccccc2Sc2ccccc21", "note": "[Promazine hydrochloride]", "cell viability": 1.02}
{"smiles": "CCCCCCCCCCCCCC(=S)NCCCC[C@H](NC(=O)OCc1ccccc1)C(=O)Nc1ccccc1", "note": "[Thiomyristoyl]", "cell viability": 1.17}
{"smiles": "COC(=O)C[C@H](NC(=O)[C@H](C)NC(=O)[C@@H](NC(=O)OCc1ccccc1)C(C)C)C(=O)CF", "cell viability": 1.18}
{"smiles": "COc1cc(O)c2c(c1)oc(=O)c1c3cc(O)c(O)cc3oc21", "note": "[Wedelolactone]", "cell viability": 0.907}
{"smiles": "O=C(/C=C/c1ccc2ccccc2n1)c1ccncc1", "cell viability": 1.07}
{"smiles": "Clc1ccc(NN=C(c2ccccc2)c2ccccn2)nc1", "cell viability": 0.86}
{"smiles": "O=C(NCCCn1ccnc1)c1cc(-c2ccco2)on1", "cell viability": 1.01}
{"smiles": "C[N+]1(C)[C@@H]2C[C@@H](OC(=O)C(O)(c3cccs3)c3cccs3)C[C@H]1[C@@H]1O[C@@H]12", "note": "[Tiotropium bromide]", "cell viability": 1.13}
{"smiles": "C[C@H]1COc2c(C3(N)CC3)c(F)cc3c(=O)c(C(=O)O)cn1c23", "note": "[Pazufloxacin Mesylate]", "cell viability": 1.04}
{"smiles": "CC(C)(C)C(=O)Oc1ccc(S(=O)(=O)Nc2ccccc2C(=O)NCC(=O)O)cc1", "note": "[Sivelestat]", "cell viability": 1.08}
{"smiles": "CSc1ccc2c(c1)C(N1CCN(C)CC1)Cc1ccccc1S2", "note": "(configuration not stated) [Methiothepin mesylate]", "cell viability": 0.981}
{"smiles": "Cc1c(C)c2c(c(C)c1O)CCC(C)(COc1ccc(CC3SC(=O)NC3=O)cc1)O2", "note": "(configuration not stated) [Troglitazone]", "cell viability": 0.981}
{"smiles": "COc1ccc(-c2cc(=O)c3c(O)cc(O)c(-c4cc(-c5cc(=O)c6c(O)cc(O)cc6o5)ccc4OC)c3o2)cc1", "cell viability": 0.908}
{"smiles": "C[N+]1(C)[C@@H]2CC[C@H]1C[C@@H](OC(=O)C(O)c1ccccc1)C2", "note": "(some centres not stated) [Homatropine Methylbromide]", "cell viability": 1.08}
{"smiles": "O=S(=O)(c1ccc(Cl)cc1)N1CCN(c2ccnc3cc(Cl)ccc23)CC1", "cell viability": 1.08}
{"smiles": "CC(C)N(C[C@H]1O[C@@H](n2cnc3c(N)ncnc32)[C@H](O)[C@@H]1O)[C@H]1C[C@@H](CCc2nc3cc(C(C)(C)C)ccc3[nH]2)C1", "note": "[Pinometostat]", "cell viability": 1.14}
{"smiles": "C[C@H](NP(=O)(OC[C@H]1O[C@@H](n2ccc(N)nc2=O)C(F)(F)[C@@H]1O)Oc1ccccc1)C(=O)OCc1ccccc1", "note": "(some centres not stated) [Acelarin]", "cell viability": 0.135}
{"smiles": "C[C@]12CC[C@H](O)CC1=CC[C@@H]1[C@@H]2CC[C@]2(C)C(n3cnc4ccccc43)=CC[C@@H]12", "note": "[Galeterone]", "cell viability": 0.925}
{"smiles": "CC1=C(/C=C/C(C)=C/C=C/C(C)=C/C(=O)O)C(C)(C)CCC1", "note": "[Tretinoin]", "cell viability": 0.614}
{"smiles": "CC(C)=CCC[C@](C)(O[C@@H]1O[C@H](CO)[C@@H](O)[C@H](O)[C@H]1O)[C@H]1CC[C@]2(C)[C@@H]1[C@H](O)C[C@@H]1[C@@]3(C)CC[C@H](O)C(C)(C)[C@@H]3[C@@H](O[C@@H]3O[C@H](CO)[C@@H](O)[C@H](O)[C@H]3O[C@@H]3O[C@@H](C)[C@H](O)[C@@H](O)[C@H]3O)C[C@]12C", "note": "[Ginsenoside Re]", "cell viability": 1.03}
{"smiles": "CC(C)=CC[C@@H](O)C1=CC(=O)c2c(O)ccc(O)c2C1=O", "note": "(racemic) [(±)-Shikonin]", "cell viability": 1.14}
{"smiles": "Nc1nc(NC2CC2)cc(-c2cccc(Cl)c2Cl)n1", "cell viability": 1.06}
{"smiles": "CC(=O)Oc1ccccc1C(=O)O", "note": "[Aspirin]", "cell viability": 1.16}
{"smiles": "CNS(=O)(=O)CCc1ccc2[nH]cc(C3CCN(C)CC3)c2c1", "note": "[Naratriptan]", "cell viability": 1.11}
{"smiles": "COc1ccc2ccc(=O)oc2c1CC=C(C)C", "note": "[Osthole]", "cell viability": 1}
{"smiles": "O=C(Nc1nc2cccc(-c3ccc(CN4CCS(=O)(=O)CC4)cc3)n2n1)C1CC1", "note": "[Filgotinib]", "cell viability": 1.05}
{"smiles": "CSCC1CN(/N=C/c2ccc([N+](=O)[O-])o2)C(=O)O1", "note": "(configuration not stated) [Nifuratel]", "cell viability": 1.23}
{"smiles": "N=C(N)NS(=O)(=O)c1ccc(N)cc1", "note": "[Sulfaguanidine]", "cell viability": 1.14}
